# Reference: publication PMC4336329 (PLoS ONE, 2015)
# Among all 310,000 compounds or so, about 14,000 (4.5%) showed an effect of 50% or more. The effect is printed as a negative number. This is one part of the list.
# Target: human ether-à-go-go-related gene (hERG) potassium channel (human, UniProt Q12809)
# Experiment: primary screen, population patch clamp on CHO cells stably expressing hERG
# 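Also: peak tail current of the secondary pulse compared with the same well before compound.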
# human ether-à-go-go-related gene (hERG) potassium channel, sequence (Q12809 whole entry, looked up): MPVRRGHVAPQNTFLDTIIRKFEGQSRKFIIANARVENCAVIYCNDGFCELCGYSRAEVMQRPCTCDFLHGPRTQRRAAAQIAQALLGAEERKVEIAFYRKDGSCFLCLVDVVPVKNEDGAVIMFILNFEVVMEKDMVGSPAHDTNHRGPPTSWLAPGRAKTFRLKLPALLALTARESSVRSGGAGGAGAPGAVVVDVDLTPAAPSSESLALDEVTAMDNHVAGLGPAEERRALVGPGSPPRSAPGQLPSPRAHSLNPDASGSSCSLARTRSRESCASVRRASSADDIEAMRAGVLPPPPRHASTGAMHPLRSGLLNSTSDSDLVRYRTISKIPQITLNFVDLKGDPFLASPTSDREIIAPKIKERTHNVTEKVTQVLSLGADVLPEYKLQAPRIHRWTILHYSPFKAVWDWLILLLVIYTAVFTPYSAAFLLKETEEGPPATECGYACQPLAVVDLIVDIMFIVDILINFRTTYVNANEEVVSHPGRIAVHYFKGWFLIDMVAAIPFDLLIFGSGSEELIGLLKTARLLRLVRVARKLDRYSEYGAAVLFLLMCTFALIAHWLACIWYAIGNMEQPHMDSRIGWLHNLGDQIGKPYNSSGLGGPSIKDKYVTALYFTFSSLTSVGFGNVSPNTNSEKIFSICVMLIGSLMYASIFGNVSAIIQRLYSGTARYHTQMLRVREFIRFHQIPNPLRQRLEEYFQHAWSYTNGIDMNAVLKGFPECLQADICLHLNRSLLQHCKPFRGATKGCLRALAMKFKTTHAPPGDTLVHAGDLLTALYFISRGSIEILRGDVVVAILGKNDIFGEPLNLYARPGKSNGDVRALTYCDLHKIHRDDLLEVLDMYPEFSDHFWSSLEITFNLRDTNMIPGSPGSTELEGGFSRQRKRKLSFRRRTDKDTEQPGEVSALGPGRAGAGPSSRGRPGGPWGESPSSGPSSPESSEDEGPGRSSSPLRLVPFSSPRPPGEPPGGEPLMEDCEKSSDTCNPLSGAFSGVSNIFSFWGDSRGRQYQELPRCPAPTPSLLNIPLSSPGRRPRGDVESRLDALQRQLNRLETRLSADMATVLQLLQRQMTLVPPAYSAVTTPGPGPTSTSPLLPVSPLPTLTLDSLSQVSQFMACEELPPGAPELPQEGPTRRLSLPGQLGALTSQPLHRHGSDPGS
row,Structure (SMILES),"hERG current change (%, negative = inhibition) at 10uM"
1,CCCCCc1ccc(CC(=O)N2CCOCC2)cc1,3.09%
2,Cc1oc(-c2cc(F)ccc2F)nc1CN1CCCN(C(=O)c2ccco2)CC1,-36.6%
3,CN(C)c1ccc(C=C2C(=O)OC3(CCCC3)OC2=O)cc1,40.2%
4,O=c1onc(-c2ccc(Cl)cc2Cl)n1-c1cccnc1,-0.625%
5,Cc1ccc(Cn2c(C3CCCN3c3nc(-c4ccc(F)cc4)cs3)nc3cc(Cl)c(Cl)cc32)cc1 (centres unmarked),9.9%
6,Cc1ccc(S(=O)(=O)N(C)C)cc1NC(=O)CN1C(=O)NC(Cc2c[nH]c3ccccc23)C1=O (centres unmarked),5.59%
7,Cc1[nH]c2ccccc2c1C(=O)C(=O)NC1CC(=O)N(c2ccc(F)cc2)C1 (centres unmarked),-51.9%
8,CCOC(=O)c1c(NC(=O)COC(=O)Cn2cnc3ccccc32)sc(C)c1C,13.5%
9,CCN(CC)CCN(Cc1cc2cc(C)ccc2[nH]c1=O)C(=O)Nc1ccccc1OC,-62.2%
10,CCCCNc1nc(N)nc(-c2cc(Cl)ccc2O)n1,20.9%
11,O=c1c2ccccc2ccc2ccccc12,-0.0838%
12,CCOC(=O)c1nn(-c2ccccc2)c(=O)c2c(NC(C)=O)scc12,8.83%
13,COc1ccccc1N1C(=O)N(C(C)=O)C2C1Nc1ccccc1N2C (centres unmarked),-12.7%
14,Cn1c(CC(=O)Nc2ccc(Cl)cc2)nnc1SCC(=O)N1CCOCC1,-0.702%
15,COc1ccc(Cl)cc1NC(=O)c1nnn(CC(=O)Nc2cc(C)cc(C)c2)c1N,21%
16,O=C(Nc1ccc(CN2CCOCC2)cc1)c1ccc(-c2cccc(Cl)c2)o1,-52.8%
17,CC(C)(C)N(CC#CCC(O)(c1ccccc1)c1ccccc1)CCO,-10.6%
18,CN(C)CCCNc1nc(-c2ccccc2)nc2ccccc12.Cl,-13.5%
19,CN(C)CCNC(=O)C(C(=O)c1ccc(F)cc1)n1ccccc1=O.Cl (centres unmarked),16.6%
20,Fc1cccc(Cn2cc(C(=S)N3CCCCC3)c3ccccc32)c1,6.93%
21,COc1ccccc1C(=O)C1CCCN(C(=O)c2cn3cc(Cl)ccc3n2)C1 (centres unmarked),-17.3%
22,CCCc1cnc(NCCNCC(O)COc2ccc(Cl)c(Cl)c2)nc1 (centres unmarked),-71.2%
23,CCc1c(C)[nH]c2ccccc2c1=O,-13.1%

row,Structure (SMILES),"hERG current change (%, negative = inhibition) at 10uM"
1,COc1ccc(NC(=O)CC(C)c2ccccc2)c([N+](=O)[O-])c1 (centres unmarked),-11.2%
2,CC(NC(=O)c1ccco1)C(=O)OCC(=O)N1CCCCCC1 (centres unmarked),11.1%
3,Cc1cc(C)cc(C(=O)Nc2ccc(NC(=O)Cc3ccccc3)cc2)c1,23.2%
4,COc1ccccc1OCCNS(=O)(=O)c1ccc2oc3ccccc3c2c1,-16.4%
5,Cc1ccc(CN2CC(C(=O)N3CCN(S(=O)(=O)c4cc(C)ccc4C)CC3)CC2=O)cc1 (centres unmarked),-47.6%
6,O=S(=O)(NCc1cccs1)NCc1ccccc1F,3.98%
7,Cc1ccc(C(=O)CSc2nnc(CNc3ccc(F)cc3)o2)cc1,29.3%
8,Nc1ncnc(Nc2c(F)cccc2F)n1,-3.04%
9,CCc1nc2ccccc2n1CC(=O)N(C(C)CC)C1CCS(=O)(=O)C1 (centres unmarked),5.72%
10,Cc1onc(-c2ccccc2)c1C(=O)Nc1nncs1,12.9%
11,CCOC(=O)CSc1nc(-c2ccccc2)ns1,6.65%
12,O=C(Cn1cc(C(F)(F)F)ccc1=O)N/N=C/c1ccc(Cl)cc1,-11.3%
13,CCC(=O)Nc1c(-c2ccccc2)c(=O)c2ccccc2n1C,10.8%
14,CC(C)C(c1nnnn1Cc1ccc(F)cc1)N1CCN(Cc2ccc3c(c2)OCO3)CC1 (centres unmarked),-43.3%
15,COC(=O)c1ccc(CSc2ncnc3ccccc23)o1,12.7%
16,CC(Oc1cccc(Cl)c1)C(=O)Nc1cc(S(=O)(=O)N2CCOCC2)ccc1N1CCCC1 (centres unmarked),-24.8%
17,Cc1cc(NC(=O)C(C)SCC(=O)Nc2ccccc2N2CCCCC2)no1 (centres unmarked),0.462%
18,CCOC(=O)CSc1nnc(-c2ccoc2C)n1-c1ccc(OCC)cc1,-66.5%
19,CCOC(=O)c1c(/N=C/c2cc([N+](=O)[O-])ccc2O)sc(C)c1C,11.1%
20,C/C(=N\NC(=O)C(c1ccncc1)N1CCOCC1)c1ccc(Br)cc1 (centres unmarked),9.75%
21,CCN(c1cccc(C)c1)S(=O)(=O)c1c(C)[nH]c(C)c1C(=O)N1CCCCC1,5.45%
22,COc1ccccc1/C=c1\sc2nc(-c3ccco3)nn2c1=O,22.3%
23,O=C(Nc1ccncc1)c1c(Cl)cccc1Cl,14.1%

row,Structure (SMILES),"hERG current change (%, negative = inhibition) at 10uM"
1,COc1ccc(/C=N/NC(=O)c2ccc3c(c2)NC(=O)C(C)(C)O3)cc1OC,-25.5%
2,Cc1cccc(C)c1N(CC(=O)NC1CCCCC1)C(=O)c1csnn1,19.4%
3,O=C(CCNC(=O)c1ccc(Br)cc1)Nc1ccccc1N1CCCC1,2.6%
4,O=C(CSc1nnc(SCc2cccc3ccccc23)s1)N/N=C/C=C/c1ccccc1[N+](=O)[O-],-6%
5,Cc1nn(Cc2ccccc2)c(C)c1NC(=O)c1cccs1,14%
6,COc1ccc(Nc2nc(N)nc(CSC(=S)N3CCCCC3)n2)cc1,0.179%
7,COC(=O)c1cc(OC)c(OC)cc1NC(=O)c1csc(C)c1,-29.2%
8,CC(=O)CCc1oc2ccc(C)cc2c1-c1ccccc1,-38%
9,COC(=O)C(C(=O)Nc1ncccn1)C1CCCCCC1 (centres unmarked),-2.91%
10,Cc1ccc(-n2c(Cn3nc(C(F)(F)F)cc3C)n[nH]c2=S)cc1,19.4%
11,COC(=O)Cc1ccc(N(Cc2ccccc2F)S(=O)(=O)c2ccc(Br)cc2)cc1,18.4%
12,Cc1ccc(S(=O)(=O)NCc2nc3ccccc3c(=O)n2N)cc1,-7.71%
13,Cc1csc(NC(=O)C(NC(=O)c2ccccc2F)C(C)C)n1 (centres unmarked),-8.88%
14,CCc1cc2c(=O)nc3n(c2s1)Cc1ccccc1/C3=C(/O)c1ccccc1Cl,4.51%
15,c1ccc(-n2cnc3cc(NCc4cccs4)ccc32)cc1,-21%
16,O=C(O)CC(c1ccc(Br)cc1)N1Cc2ccccc2C1=O (centres unmarked),9.27%
17,COc1ccc2nc(N3C(=O)CC(C(C)c4ccccc4)C3=O)sc2c1 (centres unmarked),-21%
18,CC(=O)c1ccc(NC(=S)NC(=O)c2c(Cl)c(C)nn2C)cc1,-5.81%
19,Cn1c(CO)cnc1-c1ccccc1,17.1%
20,COc1ccc(C(=O)Nc2cc([N+](=O)[O-])ccc2N2CCCC2)cc1,-1.57%
21,Cc1ccc(NC(=O)C(=O)Nc2ccccn2)cc1,1.88%
22,CC[N+](CC)(CC#Cc1ccccc1)CC(=O)c1ccc(Cl)cc1,-60.3%
23,CCN1CCCC1CNC(=O)c1ccc2c(c1)N(Cc1cccc(Cl)c1)C(=O)c1ccccc1S2(=O)=O (centres unmarked),-39.7%

row,Structure (SMILES),"hERG current change (%, negative = inhibition) at 10uM"
1,Cc1ccc(N2CC(C(=O)N3CCC(C(=O)Nc4cccc(Br)c4)CC3)CC2=O)cc1 (centres unmarked),-60.1%
2,CCN(c1ccccc1)S(=O)(=O)c1ccc(NC(=O)c2ccco2)cc1,-18.2%
3,CCNC(=S)NS(=O)(=O)c1ccc(CC)cc1,18.2%
4,COc1cc2c(cc1NC(=O)c1cccc(S(=O)(=O)N(C)C)c1)oc1ccccc12,8.56%
5,CCCn1c(C)cc(=O)c2cc(NC(=O)c3cnccn3)ccc21,-35.5%
6,Cc1cc(C(=O)N/N=C/c2ccc([N+](=O)[O-])s2)n[nH]1,10.2%
7,COc1ccc(-c2nn3c(=O)c(C)nnc3s2)cc1,17.6%
8,CCCCCc1ccc(-c2cn(Cc3cccc(OC)c3)nn2)cc1,20.4%
9,CCOCc1nnc(NC(=O)C2CC(=O)N(C3CCCC3)C2)s1 (centres unmarked),4.92%
10,Cc1cccc(C)c1NC(=O)NC1(C(=O)NCCCN2CCOCC2)CCCCC1,6.43%
11,NS(=O)(=O)c1ccc(NC(=O)COC(=O)c2c3c(nc4ccccc24)/C(=C\c2ccc4c(c2)OCO4)CCC3)cc1,2.38%
12,CCC1CCc2sc(C(=O)NCC(c3ccc(OC)cc3)N3CCCC3)cc2C1 (centres unmarked),-71%
13,Nc1ccc(-n2nncc2-c2ccco2)cc1,-1.01%
14,CC(C)C[C@H](NC(=O)[C@@H]1Cc2ccccc2CN1)C(=O)Nc1ccc(C(C)C)cc1,-14.6%
15,CSc1nccn1CC(=O)Nc1ccc(F)cc1,-0.384%
16,Cc1ccc(C)c(OCCCC(=O)NC2CCCCC2)c1,6.91%
17,CC(=O)Nc1ccc2c3c(cccc13)CC2,17.5%
18,COc1ccc(NC(=O)Nc2ccccc2SC)cc1,9.99%
19,COc1ccc(CCNC(=O)c2cc(-c3ccccc3)c(N3CCOCC3)s2)c(OC)c1OC,-0.505%
20,COc1ccc(C(C)=O)cc1COC(=O)c1ccc2c(c1)OCCO2,13.4%
